# Results taken from paper PMC7272632, “Liquid-liquid phase separation induces pathogenic tau conformations in vitro” (Nature Communications, 2020).
# B1: pseudophosphorylated (S199E, S202E and T205E) AT8 tau (unlabeled) (natural protein)
# chain: not shown
# notes: human microtubule-associated protein tau, 441 amino acids, hT40 or 2N4R isoform, pseudophosphorylated at the AT8 sites
# Biological target: the molecule itself
# Test: far-Western, overlay or dot blot; non-denaturing dot blot of 4 µM unlabeled tau proteins after 0, 1 and 4 h in LLPS buffer with PEG, probed with the oligomer-selective antibody TOC1, signal ratioed to total tau (R1)
protein,measurement,value
B1,binding result,binds
